Experimental data from article PMC12136788.
The other results are listed elsewhere or left out.

T1: UNK ZnF1-3 (human, UniProt Q9C0B0 31-174)
T1 sequence: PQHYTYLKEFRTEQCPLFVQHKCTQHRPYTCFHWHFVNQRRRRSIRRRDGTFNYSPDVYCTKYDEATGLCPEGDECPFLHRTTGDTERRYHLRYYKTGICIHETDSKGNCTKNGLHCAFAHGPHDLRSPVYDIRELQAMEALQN

B1: chr2:235962676:235962677:+_ENSG00000130147_ENST00000392011|hu_hu|FALSE|FALSE (ssRNA)
RNA: GGGAGUUCUACAGUCCGACGAUCCCCCCAUUCGUUAAAAAAGUGAUUUUAAAUUUAAAUUUAUACUUAACAAAUAGAAAGCUAUGUGAUUGGCAACGAGCUGCAGUAGGCAGUCCCUUCAGGCCUCUCCCUCGAUGGAGGAGGCAACAGAGGAUUGAGCAUCA
B2: chr5:33170631:33170632:-_ENSMUSG00000054280_ENSMUST00000120129|mus_mus|motif|central (ssRNA)
RNA: GGGAGUUCUACAGUCCGACGAUCGGAAUGGCACAGAGUAGCCUUCGGCUUUGGUAUGUGGCUGCGCAAGUUCUCGCGGGCGGCGGUUUCAGGUUCCAAUGGCUUGGCAGGCACAGUACAUGGGCUGAGAAGUCUGUGUGCUUUCAACAGAGGAUUGAGCAUCA
B3: chr4:76721835:76721836:+_ENSG00000138768_ENST00000264904|hu_mus|hu_hu_hu_mus_True|1_108 (ssRNA)
RNA: GGGAGUUCUACAGUCCGACGAUCGUUGGCUGGGGUUUUCUGAGACGCUCUGGAAUAUAACUCAUGUUUGCUAAUAAAUCCUAGUUUCUCUAUGAAAUUCUCUUUGCCAAUCCUCUUCUCUAUUAGUUGCUUUAGUUCUCUUUCCAACAGAGGAUUGAGCAUCA
B4: chr1:174042033:174042034:+_ENSMUSG00000026553_ENSMUST00000135192|mus_hu|FALSE|FALSE (ssRNA)
RNA: GGGAGUUCUACAGUCCGACGAUCGGGACGACACUCCCUGUCUAGGCAGUAUACAUUGUUGCCCUUCACCCGUGUGACAUAGAUGGGUAAAUCCAGAGUUCGAAUGAUCCCGUGGUCCCCAGUGGUGACAGCAUAUUUGAUGUGCAACAGAGGAUUGAGCAUCA
B5: chr11:116106860:116106861:-_ENSMUSG00000020780_ENSMUST00000021133|mus_mus|motif|central (ssRNA)
RNA: GGGAGUUCUACAGUCCGACGAUCGAGGCACAGGGGACACAGAGACCCUGACUCUGGGCCCAGAAGAUGACAGGCGGCAAAAGUAAGUCACAAACACACAAGAUGAACGGCCGCAGGGCUGAGGGUGCUGAGCUCUGCCCCAGCCAACAGAGGAUUGAGCAUCA
B6: chr2:129025431:129025432:+_ENSMUSG00000027397_ENSMUST00000028880|mus_mus|FALSE|FALSE (ssRNA)
RNA: GGGAGUUCUACAGUCCGACGAUCUUGCCACAGUAGAUUCCAUUCUCUAGUGUAGUGGUUCUUUAAAUAAUAAGAGAAUUACUAAGCGGCUUUUGAGAUGUGUAAACGGAAUGAGGUAUCAAAAUGCUAUAAUAAAUAGUAUAUCAACAGAGGAUUGAGCAUCA
B7: chr16:14041815:14041816:+_ENSG00000175595_ENST00000311895|hu_mus|FALSE|FALSE (ssRNA)
RNA: GGGAGUUCUACAGUCCGACGAUCGGGGCACCAGAGCAGCCGCAAACGCGGGAAGUGCAAGGUGAGGAGCGUAAGCUUGGAGCUCACAUCGCUGCUGCUCAUCUCCUGGAAGAAGGCACCUCGUGGCGCCAGGGAGAAGGGCUUCAACAGAGGAUUGAGCAUCA
B8: 64826014_64827627_1440_CDS_ENSMUSG00000034263_ENSMUST00000170517|mouse|control|control (ssRNA)
RNA: GGGAGUUCUACAGUCCGACGAUCCUUCUUGCUGUCUGCUUGGGAGUAGAGCAUUCCAUGCCAUUCAGGCCCUAGUUGGACAAGUGCCACCAUUCCUUCCACCUUCAGGCUGCCGUGGAGCAGGACACAGAAGUUGGGUAUUUUCAACAGAGGAUUGAGCAUCA
B9: chr2:37458628:37458629:-_ENSMUSG00000026915_ENSMUST00000072186|mus_hu|FALSE|FALSE (ssRNA)
RNA: GGGAGUUCUACAGUCCGACGAUCCUUAUACUGAAGCCCAGGCCUGAUCUGAUUUAGCCUCAUUAGUGCAUUCAUAAGGUCUAUUGCUUUACUAUCCAGAAUUUUCCUUAAGUUUCGUUUCAUCUUCUUGUUGGGGUCUUUAUCCAACAGAGGAUUGAGCAUCA
B10: 42271357_42271477_1278_3pUTR_ENSG00000087152_ENST00000454077|human|control|control (ssRNA)
RNA: GGGAGUUCUACAGUCCGACGAUCCUCACAGAAUAAAUAGGAAAACCGCCUCCCCACCAAACUUAUGUCCAAGGCAUAAUAUGUCCAGGUCUGAGUCCUGCACGCCGAGGAGUCGUGCUCCAUUGCAGAGGACUUUGACACCCCCAACAGAGGAUUGAGCAUCA
B11: chr12:16052864:16052865:+_ENSG00000023734_ENST00000419869|hu_hu|FALSE|FALSE (ssRNA)
RNA: GGGAGUUCUACAGUCCGACGAUCCCAUAGUCUCAAUGUUCCAUCUUCUGAACCACUGGCAUAGAGUUCUCCAUCAGGACUAAAUCUCACACAGUGAAUAGGACCAAAGUGUCCCUUGUAGGAUUCUAAUUCUUCUCCACUAUUCAACAGAGGAUUGAGCAUCA
B12: chr14:78183846:78183847:+_ENSG00000119705_ENST00000557342|hu_hu|hu_hu_hu_mus_False|48_48 (ssRNA)
RNA: GGGAGUUCUACAGUCCGACGAUCUCUCAGAAAUCUUUCUUCAUCAGAUGUUUGAGCUCCGUGCAAAGCCUUUGCUCUUUGAGCUUGAACCUGGACCUAUGGGAGGGAAAGCACUGUCAGAAAAGGUAAUUUUUUUUUUAAAGACAACAGAGGAUUGAGCAUCA
B13: chr15:25616465:25616466:-_ENSG00000114062_ENST00000438097|hu_hu|FALSE|FALSE (ssRNA)
RNA: GGGAGUUCUACAGUCCGACGAUCCGCUUUGCAAAAUAAUGGCAAAGCCAUUUCCAGAUAUUCAGGACUGUGGAGAUUUCUAUUCUCCAUUACGAUAAUGAACAAAUUCAGAUAAUUAGGAUCUCGAGAGUAUACAUUGUGAUACAACAGAGGAUUGAGCAUCA
B14: chr3:41266964:41266965:+_ENSG00000168036_ENST00000349496|hu_hu|FALSE|FALSE (ssRNA)
RNA: GGGAGUUCUACAGUCCGACGAUCGAUGGCCAGUAAGCCCUCACGAUGAUGGGAAAGGUUAUGCAAGGUCCCAGCGGUACAACGAGCUGUUUCUACAUCAUUUGUAUUCUGCAUGGUACGUACAAUAGCAGACACCAUCUGAGGCAACAGAGGAUUGAGCAUCA
B15: chr2:198351390:198351391:-_ENSG00000144381_ENST00000345042|hu_hu|hu_hu_hu_mus_False|1_68 (ssRNA)
RNA: GGGAGUUCUACAGUCCGACGAUCUCAUUCCCACCCUCCACAGAAAGGCUGCUUCUGAACUCUCAUGGUGGUGGCAAGCGCUACAGUCCUGAUGCUCACAGAACAGUAGAGAUGCCUCAGUGAUUUAAGUUGAAAGCAGCAGUACAACAGAGGAUUGAGCAUCA
B16: chr2:168006541:168006542:-_ENSMUSG00000051149_ENSMUST00000088001|mus_hu|FALSE|FALSE (ssRNA)
RNA: GGGAGUUCUACAGUCCGACGAUCUUACAUUAAGCACAAUACAGCAAUUUAUUUAGAUGCUUAAAAUGAAUACAAAGGGAAAAUAAAGAUCACAAAAUUAUACAUACUACAACAGUGUGUCAUAUAUUAGAUGGUAUAAAUGAACAACAGAGGAUUGAGCAUCA
B17: chr13:41369065:41369066:+_ENSMUSG00000091264_ENSMUST00000165561|mus_mus|FALSE|FALSE (ssRNA)
RNA: GGGAGUUCUACAGUCCGACGAUCCUAGAGCACUGGCCAUGCAACAUUUCCAGAAGGGCUGCUCGACACUGCCUUCUGUCUAAUACCAGCAAACAGCUUUGGAUAAAACCUUGGAUGUCUUAAUGGCAGUUCACUCUGUGAUGCCAACAGAGGAUUGAGCAUCA
B18: chr10:120830595:120830596:-_ENSG00000107581_ENST00000369144|hu_mus|FALSE|FALSE (ssRNA)
RNA: GGGAGUUCUACAGUCCGACGAUCUUUGAAAGCUUGUUGGGCGAUAUCAUGGUAAAGGCGCUCUACUCUAGAAUUGUUUCGAAGAAGGUCCAAACACUGCCUGUAUGAUUCCCACAGGAACUUGACCCAGGGAGUCAGUAGCAACAACAGAGGAUUGAGCAUCA
B19: chr2:60072956:60072957:+_ENSMUSG00000026977_ENSMUST00000102748|mus_hu|motif|central (ssRNA)
RNA: GGGAGUUCUACAGUCCGACGAUCCGCACUUUUAGUUUUAUCACUUUUACCAUCAGCUGAAUUCCAACCUGAAGGAAUAAUAUCGGCUGUGAUCAUGACAUUGUCGGUCAAAUUACUCCCAAGUGCUGGAGGGACUGCAAACCGCAACAGAGGAUUGAGCAUCA
B20: chr1:63113421:63113422:-_ENSG00000116641_ENST00000251157|hu_hu|motif|central (ssRNA)
RNA: GGGAGUUCUACAGUCCGACGAUCUAAGCAUUUUACAAGAAGUCUUUGACCAAAAUGUUCUUUGGGUAUAUCAGGAACACGGAGCCGUUCUAUUGGUUCUUCCUCAUCUGGUGAUGGAUGCAAAGCAAAAAGUUCUUUGUGACGCAACAGAGGAUUGAGCAUCA
B21: chr4:17845017:17845018:+_ENSG00000109805_ENST00000514176|hu_hu|FALSE|FALSE (ssRNA)
RNA: GGGAGUUCUACAGUCCGACGAUCCUUUCCUAACUUAGAUCUUCAUUGAGAAAUUGGGCAAGGUUAAGUUUACUUUUUUCUAGUGCUGCGGUUUUGGCUCGUCUUGGUAGUCUCAUCUUCAUUUCUGAUUCUGGUUCUGGAACUCAACAGAGGAUUGAGCAUCA
B22: chr5:23024286:23024287:-_ENSMUSG00000062604_ENSMUST00000088392|mus_mus|motif|central (ssRNA)
RNA: GGGAGUUCUACAGUCCGACGAUCGCAAGCUGUACUCCAAAUGUCUGCAGGUGUGCUGUAGCCUGCUCCUAUUAAAACCUCGGUGGACCUAUACUGACGUGUCUGGAUAUCCUCUGUGAAAUGUUUAUGCACCCAACAAGCAUUCAACAGAGGAUUGAGCAUCA

biological target: T1, UNK ZnF1-3; test: nsRBNS (natural sequence RNA bind-n-seq); RBNS binding buffer (assumed for nsRBNS): 25 mM Tris pH 7.5, 150 mM KCl, 3 mM MgCl2, 0.01% Triton X-100, 500 ug/ml BSA, 20 U/ml SUPERase-In, 4 C; UNK is unkempt and MSI1 is Musashi-1; names of the RNAs are library labels; protein concentration not given here; high values mean tight binding

Binder | binding signal
B1 | 2.17 enrichment R
B2 | 0.886 enrichment R
B3 | 0.475 enrichment R
B4 | 0.919 enrichment R
B5 | 1.52 enrichment R
B6 | 1.39 enrichment R
B7 | 1.31 enrichment R
B8 | 1.13 enrichment R
B9 | 0.447 enrichment R
B10 | 1.02 enrichment R
B11 | 0.664 enrichment R
B12 | 0.98 enrichment R
B13 | 0.528 enrichment R
B14 | 0.991 enrichment R
B15 | 1.17 enrichment R
B16 | 1.84 enrichment R
B17 | 1.08 enrichment R
B18 | 0.573 enrichment R
B19 | 0.666 enrichment R
B20 | 0.874 enrichment R
B21 | 0.392 enrichment R
B22 | 0.994 enrichment R
